In the assay the test system is MDA-MB-468 breast. The assay can be described thus: NCI anticancer screen, dose series, 48 h.

Drawing on PubChem BioAssay (NCI), this text covers GI50 and TGI for 2 compounds.

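Test compounds were applied to cells in 96-well plates for 48 hours at 5 doses. Abbreviation: GI50, concentration required for 50% inhibition of growth.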 For part of its entries the source gives two or more results. Only these are listed. There may be further records. For part of these data: The tests behind the records often covered other concentration ranges, not given here; some values may only mark the edge of a range.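 At the TGI there is no net growth.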 For part of these data: Values given together repeat one measurement across runs, samples, wells, individuals or studies. Records carry a tag for their origin. Letters hold for one entry only.

Consider `C/C=C/C1=CN2C(=O)c3cc(OC4OC(C)C(NC)C(C)(O)C4O)c(C)c(O)c3N=C[C@@H]2C1` (stereo partly drawn), for which the GI50 was 114 nM and < 10 nM; the TGI is 293 nM and < 10 nM.
For `CNC(=O)CN1CCC(Oc2cc3c(Nc4cccc(Cl)c4F)ncnc3cc2OC)CC1`, the TGI was 37.7 nM [sample A, mean of 2 tests] and 583 nM [sample B, mean of 2 tests].
